Data reported in PubChem BioAssay AID1159614 (National Center for Advancing Translational Sciences (NCATS), 2016).
Screen size: about 45,000 compounds; about 65 (0.1%) were called active. Calls come from the whole dose curve; as a rule, active = well fitted activation curve with a large enough effect; inconclusive = small, poorly fitted or top-dose-only effect; inactive = no such curve, though single readings can be large or run the other way. The list shows a part of the results.

The compounds below were run against Galactocerebrosidase (Homo sapiens) (UniProt P54803) (assay: A Novel Cell-Based Assay to Identify Small Molecules for B -Galactocerebrosidase). Conditions: 145M-Twi-hGALC-G270D cells (Twitcher mouse brain line with human GALC G270D), HMU-beta-Gal fluorescence, 48 h; series mostly up to 57.5 µM; activation: at the top concentration.
Chain of UniProt P54803 (P54803 whole entry, looked up): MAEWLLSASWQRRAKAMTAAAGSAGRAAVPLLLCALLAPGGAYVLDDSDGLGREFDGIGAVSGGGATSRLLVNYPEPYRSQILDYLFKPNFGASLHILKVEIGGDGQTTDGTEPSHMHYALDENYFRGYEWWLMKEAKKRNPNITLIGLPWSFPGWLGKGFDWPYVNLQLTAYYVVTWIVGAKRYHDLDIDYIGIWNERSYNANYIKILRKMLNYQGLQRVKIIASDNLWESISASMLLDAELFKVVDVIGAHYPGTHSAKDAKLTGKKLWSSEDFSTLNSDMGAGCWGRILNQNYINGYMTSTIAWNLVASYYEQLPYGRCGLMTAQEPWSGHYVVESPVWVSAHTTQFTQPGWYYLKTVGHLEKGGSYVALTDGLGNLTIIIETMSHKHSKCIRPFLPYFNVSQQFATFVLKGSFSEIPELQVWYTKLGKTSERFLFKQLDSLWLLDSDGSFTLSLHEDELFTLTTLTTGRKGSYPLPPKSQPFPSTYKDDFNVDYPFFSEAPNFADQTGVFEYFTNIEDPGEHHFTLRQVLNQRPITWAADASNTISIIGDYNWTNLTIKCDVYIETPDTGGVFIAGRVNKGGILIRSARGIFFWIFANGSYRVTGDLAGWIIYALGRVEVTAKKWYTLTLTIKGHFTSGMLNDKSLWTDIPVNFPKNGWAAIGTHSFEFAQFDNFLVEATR
In short: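 Live 145M-Twi cells (Twitcher mouse brain-derived, GALC-null) stably expressing human GALC-G270D, with a wild-type GALC line, were compound-treated. Residual GALC activity was then read as fluorescence from 0.1 mM final HMU-β-gal at pH 5.2; higher signal means activation.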
Note: 0% is about no effect; nearly all actives have a fitted effect of over 65% in size.

activation, inactive:
CCCCOc1ccc(CNC(=O)c2cnc3sc(N4CCOCC4)nn3c2=O)cc1 -6.43%
COc1cccc(OCc2nc3ccccc3n2CCOc2ccccc2C)c1 -11.8%
O=C(C1CC1)N1CCN(c2nc3ccc(F)cc3s2)CC1 -11.3%
Cn1c(=O)c2c(nc(NCc3ccccc3)n2Cc2ccccc2Cl)n(C)c1=O -9.14%
CN(C)S(=O)(=O)c1ccc2c(c1)nnn2CCNC(=O)Nc1ccc(Br)cc1 -11.3%
Cc1ccc(C)c(Nc2nn3c(=O)c4ccc(C(=O)NC5CCCCC5)cc4nc3s2)c1 -7.08%
Cc1ccc(C(=O)NCC(c2cccnc2)N2CCc3ccccc32)cc1C (configuration not stated) -17.7%
COc1ccc(CCNC(=O)CCCCn2c(=O)c3ccccc3n(Cc3ccc(F)cc3Cl)c2=O)cc1OC -10.4%
Cn1nnc2c(C(N)=O)ncn2c1=O -13.8%
Cc1cccc(CN2CCc3nc(N4CCN(c5ccccn5)CC4)ncc3C2)c1 5.29%
Cc1c(-c2nsc(NC(=O)c3cccs3)n2)nnn1-c1ccc(Br)cc1 -10.3%
CCC1CN(C(=O)Nc2cc(C)cc(C)c2)c2ccccc2O1 (configuration not stated) -6.48%
Cc1cc(NC(=O)c2cc(-c3ccc(Cl)cc3)on2)nn1Cc1ccc(Cl)cc1 1.74%
CCc1ccc(NC(=O)Cn2c(=O)n(CCC(=O)NCc3ccc4c(c3)OCO4)c(=O)c3ccccc32)cc1 -6.57%
Cc1c(C)n(Cc2ccccc2)c2ccc(C(=O)NCc3ccco3)cc12 -3.1%
COc1cccc(-n2c(SCc3ccccc3C)nc3c([nH]c4ccccc43)c2=O)c1 -2.11%
CC(=O)c1ccc(NC(=O)CCc2c(C)nc3cc(-c4ccc(Cl)cc4)nn3c2C)cc1 -9.56%
Cc1ccc(C)c(NC(=O)CN(CCc2ccccc2)S(=O)(=O)c2ccccc2)c1 -14.8%
Cc1cccc(Cc2c(C)nc3nc(SCc4ccccc4C)nn3c2C)c1 -18.9%
COc1cccc(Cn2c(=O)n(-c3ccccc3C)c(=O)c3c2c2cc(C)ccc2n3C)c1 -3.97%
COc1cccc(NC(=O)C2CCN(C(=O)N3CC(C)Oc4ccccc43)CC2)c1 (configuration not stated) -13.4%
O=C(NCc1ccccc1Cl)c1ccc2c(O)c(S(=O)(=O)c3ccccc3)c(=O)[nH]c2c1 -16.4%
COc1ccc(Cl)cc1C(=O)Nc1ccc(-c2nnc3n2CCCCC3)cc1 -26.8%
Cc1ccc(CNC(=O)CN2C(=O)C3CCCCN3c3ccc(C(=O)N4CCCC4)cc32)cc1 (configuration not stated) -10.1%
CCOc1ccc(NC(=O)Cn2nnc(C(=O)Nc3ccc(OCC)cc3)c2N)cc1 -12.2%
CC(C)CCNC(=O)[C@@H](c1ccccc1)N1Cc2ccccc2C1=O 2.14%
CCOC(=O)C1=C(CS(=O)(=O)c2ccc(F)cc2)NC(=O)NC1c1ccc(OCC)c(OC)c1 (configuration not stated) 5.89%
